From ChEMBL document CHEMBL4888484, “Replenishing the malaria drug discovery pipeline: Screening and hit evaluation of the MMV Hit Generation Library 1 (HGL1) against asexual blood stage Plasmodium falciparum ,using a nano luciferase reporter read-out” (2022) come the findings set out here.

Structures are written as SMILES. Hit rate of the full screen: of about 150,000 compounds, about 540 (0.36%) showed an effect of 50% or more. Some of the results follow.

For this assay, the system named is Plasmodium falciparum. Nature of the assay: Primary screen in NF54 nanoGlo assay, in single point, at 2uM, 72h; a lower Z score goes with more inhibition. It counts as functional, Erythrocyte. The note with it: timepoint 72 hour.
Regarding `CCCCNC(=O)CNc1cc(Cl)ccc1C(=O)NCC`, the % Inhibition (in general, the change of the read-out against control, counted positive when it falls) is recorded as -5% and the Z score stood at 0.71.
In the case of `COc1ccc([C@@H]2c3[nH]c4ccc(Cl)cc4c3CCN2C(=O)NCc2ccc(F)cc2)cc1`, the “% Inhibition” value is given as 21% and the Z score is reported as -3.15.
The corresponding values for `CC(F)(F)CN1CCC[C@H](c2n[nH]c(C3CC3)n2)C1` are -4% and 0.9.
The corresponding values for `CC(C)(C)NCCNC(=O)C(=O)Nc1ccc(Cl)c(F)c1` are -7% and 1.01.
For `CN(C(=O)CCOC1CCOCC1)c1cccc(F)c1` the same measures were -8% and 1.06.
In the case of `COc1cc(NC(=O)CCc2ccc(C)o2)ncn1`, the “% Inhibition” value was -13% and the Z score stood at 1.69.
For `C[C@@H](Cn1cncn1)C(=O)NCc1cccnc1N1CCN(C)CC1` the same measures were -1% and 0.19.
For `O=C(NCc1cccc(Cl)c1)[C@@H]1CN(S(=O)(=O)c2ccccc2Cl)CCO1` the same measures were 0% and -0.07.
As for `CC(=O)N1CCN(C(=O)c2cc(Cl)c(Cl)n2C)CC1`, the “% Inhibition” value is reported as -1% and the Z score was determined as 0.19.
For `COc1cc(NCc2cn(C(C)(C)C)nn2)c(C)c(OC)c1` the same measures were -9% and 1.73.
The corresponding values for `C[C@@]1(C(=O)NCCS(=O)(=O)NCC2CCC2)CCCNC1=O` are -3% and 0.35.
For `CCCCS(=O)(=O)N[C@@H](CC)c1ncccc1C` the same measures were 3% and -0.59.
Turning to `COCCN1C[C@@H](NC(=O)c2csc(-c3cccs3)n2)CC1=O`, the “% Inhibition” value was found to be 9% and the Z score is listed as -0.99.
The corresponding values for `Clc1cccc(CNCCCNc2ccncc2)c1Cl` are 67% and -8.81.
For `CCN(Cc1ccoc1)C(=O)C(=O)Nc1ncc(C)s1` the same measures were -6% and 0.72.
The corresponding values for `CC(C)N(C)CC(=O)NC1CCCCCCC1` are 9% and -0.89.
Regarding `CCCOc1ccc(CNC(=O)CCn2ccn3nc(-c4ccc(C)c(C)c4)cc3c2=O)cc1`, the “% Inhibition” value amounted to 34% and the Z score is on record as -0.58.
The corresponding values for `Cn1c(C[C@H]2CN(Cc3cccc(F)c3)CC[C@H]2CC(=O)O)nc2ccccc21` are 24% and -2.77.
For `O[C@H]1C[C@H]2CC[C@@H](C1)N2c1nc(-c2cccnc2)nc2c1CNC2` the same measures were -8% and 1.23.
For `Cc1cc(C(=O)N(C)Cc2nc3ccccc3c(=O)[nH]2)c(C)o1` the same measures were 6% and -1.21.
For `Cc1cc(C)c(-c2ncc[nH]2)cc1Cn1cncn1`, the “% Inhibition” value is on record as -4% and the Z score amounted to 0.73.
For `CCCNC(=O)n1ccc(C(=O)N2CCOCC2)n1` the same measures were 11% and -1.6.
The corresponding values for `O=S1(=O)CCCN1Cc1ccccc1OC(F)F` are -4% and 0.39.
For `CC(C)[C@H]1CCCN(Cc2cnc(N(C)C)s2)CC1` the same measures were -8% and 0.87.
Take `Cc1sc(NC(=O)CN2CCC[C@H]2C(=O)O)c(C)c1C`: the “% Inhibition” value was -21% and the Z score worked out at 2.87.
Consider `Cc1nc2n(c1CN1CCN(c3ccccn3)CC1)CCCC2`, for which the “% Inhibition” value was 1% and the Z score is given as -0.17.
For `O=C(NCc1ccc(Cl)cc1)c1ccc(-n2nc3c(c2-c2cccc(C(F)(F)F)c2)CCC3)cc1` the same measures were -3% and 0.43.
For `COc1ccccc1C[C@@H](C)Cc1nc(-c2ccccn2)no1` the same measures were -7% and 0.77.
Turning to `O=S(=O)(NC[C@H]1Cn2ccnc2CO1)c1ccc(Cl)cc1`, the “% Inhibition” value is reported as -6% and the Z score was 0.91.
For the compound `CNC(=NC(C)C1CCCO1)N1CCC(C)CC1` (centres undefined), the “% Inhibition” value was -1% and the Z score came to 0.12.
For `Fc1cnccc1N1CCO[C@H](c2ccc(Cl)cc2)C1`, the “% Inhibition” value is -8% and the Z score is 1.06.
For `CC(C)(CC(=O)NS(C)(=O)=O)C1CC1` the same measures were 2% and -0.32.
With `COc1cccc([C@H]2CCN(C(=O)CNC(=O)N(C)C)C2)c1OC`, the “% Inhibition” value was -2% and the Z score was 0.19.
The corresponding values for `CS(=O)(=O)N1CCN(C(=O)NC[C@@H](c2ccco2)n2cccn2)C1=O` are -5% and 1.04.
The corresponding values for `O=C(c1ccccc1)c1ccc2n1CC[C@H]2C(=O)Nc1ccc(C(F)(F)F)cc1` are 30% and -3.39.
The corresponding values for `CS(=O)(=O)N1C[C@@H]2CC[C@H]1CN(C(=O)c1ccccc1)C2` are 6% and -1.11.
For the compound `COc1nccc(N2CCN(Cc3ccc(C)o3)[C@@H](CCO)C2)c1C#N`, the “% Inhibition” value worked out at 0% and the Z score stood at 0.05.
For `CN(CC(=O)NC(=O)NC1CC1)Cc1cccc(Cl)c1Cl` the same measures were -12% and 1.6.
The corresponding values for `CS(=O)(=O)Nc1ccc(-c2cnc3ccc(F)cc3c2)cn1` are -13% and 1.7.
For `CCc1cnccc1C(=O)NCCc1nc(C2CC2)cs1` the same measures were 7% and -0.59.
With `COCCNC(=O)CNc1ccccc1`, the “% Inhibition” value was 5% and the Z score is recorded as -0.47.
For `Cc1nc(N(Cc2c(C)nn(C)c2C)C(C)C)c2nc(C)oc2n1` the same measures were -12% and 1.7.
In the case of `CCS(=O)(=O)N1CCC[C@H](C(=O)N(C)Cc2c[nH]nc2C)C1`, the “% Inhibition” value is 7% and the Z score is -0.93.
The corresponding values for `COc1ccc([C@H]2OCC[C@@H]2Nc2ncnc3c(F)c(OC)ccc23)cn1` are -14% and 1.86.
For `CC1(C)Cc2nc(N3CCC(O)CC3)ncc2[C@@H](NCc2cccnc2)C1` the same measures were -3% and 0.36.
For `Cc1cccc2cc3c(nc12)N(C(=O)C(C)C)CC3` the same measures were -6% and 0.64.
For the compound `O=C(Nc1ccccc1)C1CCN(Cc2nc3ccccc3s2)CC1`, the “% Inhibition” value is given as -10% and the Z score is reported as 1.34.
For `CCn1c(CC2CCN(CC3=CC[C@H]4C[C@@H]3C4(C)C)CC2)nn(C)c1=O` the same measures were -13% and 1.19.
On to `O=S(=O)(c1cnn(C2CCCC2)c1)N1CC(O)(C(F)(F)F)C1`, for which the “% Inhibition” value amounted to 12% and the Z score is -2.14.
For `CC12CCC(C(=O)N(CN3CCOCC3)C1=O)C2(C)C` (centres undefined) the same measures were 6% and -0.76.
Take `COc1ccc(-c2ccnc3nc([C@@H]4CCCO4)nn23)c(F)c1`: the “% Inhibition” value was -9% and the Z score was determined as 1.4.
The corresponding values for `Cc1cccc2c1CCN(S(=O)(=O)c1cnc(C3CC3)s1)[C@H]2C(=O)O` are -2% and 0.25.
The corresponding values for `CCNS(=O)(=O)c1ccc2c(c1)C(C)(C)CN2CC(=O)N1CCCC1` are 0% and 0.05.
The corresponding values for `Cc1nc(-c2ccccc2)c(C(=O)N(C)CC(=O)N2CCOCC2)s1` are -5% and 0.66.
In the case of `C[C@@H]1COCCN(C(=O)Nc2ccc(Cl)c(OC(F)F)c2)C1`, the “% Inhibition” value turned out to be 1% and the Z score is reported as -0.15.
Regarding `Cc1ccc(-c2c3c(=O)n(C)c(=O)n(C)c3c3n2-c2ccccc2O[C@@H]3c2cccc(F)c2F)cc1`, the “% Inhibition” value is given as -11% and the Z score amounted to 1.48.
As to `COc1ccc(N[C@H]2CCCN(C(=O)CCCN3CCCC3=O)C2)cc1OC`, the “% Inhibition” value worked out at 9% and the Z score is reported as -1.19.
The corresponding values for `Cc1nccn1-c1ccc(-c2ccc(S(C)(=O)=O)cc2)nn1` are -1% and 0.24.
For `Cc1nn(C)c(C)c1NC(=O)c1cc2c(s1)CCCC2` the same measures were -8% and 1.02.
Consider `COCCNCCOc1ccc(Cl)c(Cl)c1`, for which the “% Inhibition” value was -7% and the Z score is given as 0.93.
Turning to `COc1ccc(-n2cc([C@H](C)Nc3cc(C)nc4ccnn34)cn2)cc1`, the “% Inhibition” value is reported as -10% and the Z score is 1.18.
The corresponding values for `CC(C)CN(CC(N)=O)Cc1cn(C)nn1` are -2% and 0.17.
Take `COc1ccc(C(=O)CCC(=O)N2CC(OCc3ccccc3)C2)cc1`: the “% Inhibition” value is given as -9% and the Z score amounted to 1.32.
For `Cc1cccc(NC(=O)C2C(=O)NC34CCCCC3C2c2ccccc2O4)c1` (centres undefined) the same measures were -6% and 0.5.
The corresponding values for `Cc1cccnc1CNc1cncc(Br)c1` are 17% and -2.07.
For `CCOc1ccc(Nc2nnc(-c3nc(-c4ccccc4)oc3N)s2)cc1` the same measures were -7% and 0.96.
Take `CC(=O)N1CCc2cc(S(=O)(=O)Oc3ccccc3C#N)ccc21`: the “% Inhibition” value was -15% and the Z score turned out to be 1.29.
The corresponding values for `O=C(NC[C@H]1CN(S(=O)(=O)c2cccc(F)c2)CC12CCOCC2)N1CCCC1` are -7% and 1.3.
For `Cc1nc(C(=O)Nc2cnn([C@H]3CCOC3)c2)cs1` the same measures were 7% and -0.89.
With `Cn1c(=O)c(-c2ccc(C(=O)NC3CCCCC3)cc2)nc2cccnc21`, the “% Inhibition” value is reported as 1% and the Z score was -0.12.
With `CC1CCN(C(=O)c2ccccc2N2CCC(NC(=O)c3cc(F)cc(F)c3)CC2)CC1`, the “% Inhibition” value is reported as -15% and the Z score came to 2.1.
For `COc1ccc(Cl)cc1NC(=O)Cn1nc(C(=O)N2CCCC2)ccc1=O` the same measures were -15% and 1.99.
For `COc1cc(-c2cccc(C(=O)NCC[C@H]3CCCN3C)c2)nc(OC)n1` the same measures were -12% and 1.26.
For `O=C1COCC(=O)N1Cc1ccccc1` the same measures were 7% and -0.87.
With `CC(C)[C@@H](c1ccccc1)N(C)CC#N`, the “% Inhibition” value is on record as 6% and the Z score is -1.14.
The corresponding values for `CC(=O)NCCNC(=O)c1cc(NCc2ccccc2C)cc(S(=O)(=O)Nc2ccccc2C)c1` are -5% and 0.92.
Turning to `Cc1nc2ccccn2c1CC(=O)NCCS(=O)(=O)CC(C)C`, the “% Inhibition” value amounted to 0% and the Z score was -0.01.
For `Cc1csc(CN(C[C@H]2CCCO2)C(=O)Cc2cc(C)on2)n1` the same measures were -13% and 2.53.
The corresponding values for `CC[C@@H](C(=O)Nc1c(N2CCCC2)nn(C)c1C)n1cccn1` are -1% and 0.11.
For `Fc1cccc2c3c([nH]c12)CNCCC3` the same measures were 1% and -0.13.
For the compound `Cc1cc(C(=O)Nc2sc3c(c2C#N)CCCCC3)no1`, the “% Inhibition” value is listed as -23% and the Z score amounted to 2.1.
For `CN(CCc1cnn(C)c1)C(=O)c1cnc(-c2ccncc2)nc1` the same measures were -9% and 0.83.
With `COc1ccc(OCC(F)(F)C(F)F)c(C(N)=O)c1`, the “% Inhibition” value is 20% and the Z score is reported as -2.27.
For `COc1cc(OC)nc(N2CCO[C@H](C(=O)N(C)C)C2)n1`, the “% Inhibition” value amounted to 4% and the Z score is on record as -0.91.
In the case of `Brc1ccc(-c2oc(-c3ccccc3)nc2-c2ccccc2)cc1`, the “% Inhibition” value is on record as -16% and the Z score was 2.08.
Consider `C=CCN(CCO)S(=O)(=O)c1ccc(Br)cc1C`, for which the “% Inhibition” value is -2% and the Z score was found to be 0.29.
Take `CC1CC1C(=O)N(C)CCOCc1ccccc1` (centres undefined): the “% Inhibition” value is listed as 4% and the Z score is -0.53.
